Here are results for 45 molecules from publication PMC4336329 (PLoS ONE, 2015).

Each structure is given as a SMILES string. The campaign covered roughly 310,000 compounds. About 2,200 (0.71%) showed an effect of 50% or more. Effects have a minus sign here. The list shows a part of the results.

human ether-à-go-go-related gene (hERG) potassium channel, sequence (Q12809 whole entry, looked up): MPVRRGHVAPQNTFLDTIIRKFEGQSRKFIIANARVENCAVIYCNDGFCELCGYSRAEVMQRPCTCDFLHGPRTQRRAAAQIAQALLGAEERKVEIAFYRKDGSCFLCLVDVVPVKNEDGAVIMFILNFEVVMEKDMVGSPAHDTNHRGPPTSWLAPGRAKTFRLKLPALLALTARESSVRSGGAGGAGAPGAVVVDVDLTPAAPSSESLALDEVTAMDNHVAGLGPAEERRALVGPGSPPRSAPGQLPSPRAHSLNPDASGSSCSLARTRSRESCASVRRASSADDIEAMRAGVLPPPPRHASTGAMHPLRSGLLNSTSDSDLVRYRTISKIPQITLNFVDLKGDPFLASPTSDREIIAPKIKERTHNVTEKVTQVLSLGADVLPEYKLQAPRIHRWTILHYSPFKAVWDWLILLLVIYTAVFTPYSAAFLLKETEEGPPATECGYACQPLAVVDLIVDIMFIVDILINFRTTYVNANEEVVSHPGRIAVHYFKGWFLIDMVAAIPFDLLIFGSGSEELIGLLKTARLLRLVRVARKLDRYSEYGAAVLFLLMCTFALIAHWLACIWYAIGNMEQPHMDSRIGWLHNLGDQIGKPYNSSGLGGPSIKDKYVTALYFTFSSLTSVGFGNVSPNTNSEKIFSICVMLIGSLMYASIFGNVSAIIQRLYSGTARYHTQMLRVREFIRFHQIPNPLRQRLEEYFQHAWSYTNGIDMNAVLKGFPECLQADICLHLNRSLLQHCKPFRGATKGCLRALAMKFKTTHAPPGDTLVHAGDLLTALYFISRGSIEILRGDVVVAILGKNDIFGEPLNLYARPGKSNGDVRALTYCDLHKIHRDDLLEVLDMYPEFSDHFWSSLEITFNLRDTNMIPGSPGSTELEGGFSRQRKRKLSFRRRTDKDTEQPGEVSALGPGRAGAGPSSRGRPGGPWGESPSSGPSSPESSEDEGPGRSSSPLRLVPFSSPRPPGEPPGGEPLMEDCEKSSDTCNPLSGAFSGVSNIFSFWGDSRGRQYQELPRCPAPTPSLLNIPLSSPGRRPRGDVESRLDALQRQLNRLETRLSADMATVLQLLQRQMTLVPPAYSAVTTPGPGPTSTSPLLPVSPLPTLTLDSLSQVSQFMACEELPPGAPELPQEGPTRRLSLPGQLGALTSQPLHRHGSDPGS

The experiment concerns the target human ether-à-go-go-related gene (hERG) potassium channel (human, UniProt Q12809). As to the kind of experiment: primary screen, population patch clamp on CHO cells stably expressing hERG.
As for `Cc1ccc(Nc2ccc(N3CCN(c4ccc([N+](=O)[O-])cc4)CC3)nn2)cc1`, the “hERG current change (%, negative = inhibition) at 1uM” value is listed as 16.4%.

As for `CCc1ccc(OCC(=O)Nc2ccncc2)c(Br)c1`, the “hERG current change (%, negative = inhibition) at 1uM” value is on record as 11.8%. As for `CCCCN1Cc2c(nc3cc(-c4ccccc4)[nH]n3c2=O)C1=O`, the “hERG current change (%, negative = inhibition) at 1uM” value came to 12.6%.

For the molecule `O=C1CCCC2=C1C(O)(C(F)(F)F)C(=O)N2Cc1ccccc1` (stereo not drawn), the “hERG current change (%, negative = inhibition) at 1uM” value is recorded as 0.0159%. The value for `COc1cc(/C=C/C(=O)N(Cc2ccccc2)c2ccccn2)cc(OC)c1OC` was 10.3%; that for `CCC(NC(=O)c1cc(COc2cc(C)c(Cl)c(C)c2)on1)c1ccncc1` (stereo not drawn) was 7.67%.

Turning to `Cc1cccc(C(=O)NCc2nnc(SCc3ccc(F)cc3)n2C)c1`, the “hERG current change (%, negative = inhibition) at 1uM” value was 13.8%.

Take `Cc1cc(C)cc(OC(=O)COc2ccccc2C)c1`: the “hERG current change (%, negative = inhibition) at 1uM” value was 16.8%. Consider `CNC(=S)N1N=C(c2ccc(OC)cc2)CC1c1ccccc1Cl` (stereo not drawn), for which the “hERG current change (%, negative = inhibition) at 1uM” value worked out at 8.31%. `CC(=O)N1CCCC1(C(=O)O)c1ccccc1` (stereo not drawn): the “hERG current change (%, negative = inhibition) at 1uM” value was 5.88%.

`Cc1ccc2cc(CCNC(=O)c3ccco3)c(=O)[nH]c2c1C`: the “hERG current change (%, negative = inhibition) at 1uM” value is 7.85%. The same measure for `COCc1cc(C)nc(SCc2ccc([N+](=O)[O-])cc2)c1C#N`: 10.6%. The value for `COc1ccc(/C=C2/C(=O)NC(=O)N(Cc3ccco3)C2=O)cc1` was 4.94%; that for `CN(CC(=O)Nc1ccccc1Br)C(=O)CCCSc1nc2ccccc2[nH]1` was 11%; that for `CC(=O)C1=C(Nc2ccccc2)CC(C)(O)C(C(C)=O)C1c1ccccc1` (stereo not drawn) was 10.7%. The same measure for `COc1ccc(N2CCN(C(CNC(=O)c3ccc4c(c3)OCO4)c3ccco3)CC2)cc1` (stereo not drawn): 11.7%; for `Cc1ccc(OCC(=O)Nc2ccc(N(C)C)cc2)cc1`: -1.4%. As to `CCCN1Cc2cccc(C(=O)N3CCN(c4cc(Cl)ccc4C)CC3)c2C1=O`, the “hERG current change (%, negative = inhibition) at 1uM” value is given as -8.85%. Regarding `O=C(/C=C/c1ccco1)N(c1ccccn1)c1ccccn1`, the “hERG current change (%, negative = inhibition) at 1uM” value stood at 6.44%. In the case of `CCCc1nc2ccc([N+](=O)[O-])cc2[nH]1`, the “hERG current change (%, negative = inhibition) at 1uM” value was 14.5%. The same measure for `O=C(NCc1cccs1)C1CCCN(S(=O)(=O)c2ccc(Br)s2)C1` (stereo not drawn): 5.4%. As to `COc1cc(OC)cc(C(=O)NC(C)c2ccc(Br)cc2)c1` (stereo not drawn), the “hERG current change (%, negative = inhibition) at 1uM” value amounted to 0.576%.

Turning to `Cc1ccc2c(c1)c(N=Nc1cccc(C(=O)O)c1)c(O)n2C`, the “hERG current change (%, negative = inhibition) at 1uM” value turned out to be 6.85%. The same measure for `CCOC(=O)C1C(=O)CC(C)(O)C(C(=O)OCC)C1c1ccc(C)s1` (stereo not drawn): 8.81%; for `COc1ccc(CN2CCC(Oc3cc(C(=O)NC4CC4)ccc3OC)CC2)c(O)c1`: -87.5%.

`COc1ccc(Cc2nnc(SC(C)C(=O)Nc3ccc(C(N)=O)cc3)o2)cc1` (stereo not drawn): the “hERG current change (%, negative = inhibition) at 1uM” value is -0.353%. Consider `O=C(OCC(=O)N1CCN(c2ccccc2)CC1)C1=COCCO1`, for which the “hERG current change (%, negative = inhibition) at 1uM” value is reported as 18.2%.

Turning to `Cc1ccc2nc(NC(=O)C3CCCN3C(=O)OC(C)(C)C)sc2c1` (stereo not drawn), the “hERG current change (%, negative = inhibition) at 1uM” value was -0.341%.

As for `CCCCN1CCC(O)(c2ccccc2)C(C(=O)c2ccccc2)C1` (stereo not drawn), the “hERG current change (%, negative = inhibition) at 1uM” value was 12.8%.

Turning to `Nc1ccc(S(=O)(=O)[O-])cn1.[Na+]`, the “hERG current change (%, negative = inhibition) at 1uM” value was 17.4%. The same measure for `COc1ccc(-c2cc(=O)oc3cc(OC(=O)C4CCCCC4)ccc23)cc1`: 12.4%; for `CCCNC(=O)COC(=O)c1[nH]c(C)c(C(=O)OCC)c1C`: 19.6%; for `Br.COc1cccc(Nc2nc(-c3cccc(N4C(=O)c5ccccc5C4=O)c3)cs2)c1`: 14.1%. Regarding `CC(=O)Nc1nc(CCC(C)C)cc2c1c(=O)oc1ccccc12`, the “hERG current change (%, negative = inhibition) at 1uM” value was 6.97%. Consider `CS(=O)(=O)c1cccc(NC(=O)CSc2nnc3n2CCCCC3)c1`, for which the “hERG current change (%, negative = inhibition) at 1uM” value is given as 14.6%.

`CCN(CC)C(=O)CSc1nc(O)c(Cc2ccccc2)c(=O)n1-c1ccc(C)cc1`: the “hERG current change (%, negative = inhibition) at 1uM” value is on record as 14.3%.

Turning to `CN=c1scc(C)n1/N=C/c1ccc(O)cc1O`, the “hERG current change (%, negative = inhibition) at 1uM” value is on record as 5.87%. The same measure for `CCOc1cc(CNCc2cc(OC)cc(OC)c2)ccc1OC.O=C(O)C(=O)O`: 5.06%; for `CCCNC(=O)OCCC12CC3CC(CC(C3)C1)C2`: 12.5%; for `COc1ccccc1Cn1nnc2c(=O)[nH]c(C3CCN(C(=O)c4ccc(C)cc4)CC3)nc21`: -0.855%. The value for `C=C(C)CSc1nc(N)c(C#N)c(-c2ccc(C)cc2)c1C#N` was 12.8%; that for `Cc1nn(C(C)(C)C)c(NC(=O)c2ccc(Cl)cc2Cl)c1Br` was 10.1%; that for `Clc1cccc(CNc2nnnn2-c2ccccc2)c1` was 18.3%. The same measure for `O=C(CSc1ncn[nH]1)N1CCOCC1`: 12.9%. In the case of `O=C(CSc1nnc(-c2ccc(Cl)s2)o1)N1CCc2ccccc21`, the “hERG current change (%, negative = inhibition) at 1uM” value is -5.29%.
